Experimental data: the antibiotic and cytotoxicity screens of Wong et al. (2023)
The list shows a part of the results.

system: HepG2; assay: cytotoxicity call (relative viability < 0.9); conditions: 10 µM

| SMILES | cytotoxicity call |
| --- | --- |
| C[C@H](CO)N1C[C@H](C)[C@@H](CN(C)C(=O)Nc2ccc3c(c2)OCO3)Oc2c(NC(=O)Nc3ccc(C(F)(F)F)cc3)cccc2C1=O | inactive |
| O=C(C[C@@H]1C=C[C@@H](NC(=O)CN2CCOCC2)[C@H](CO)O1)NC1CCC1 | inactive |
| C#CCN1[C@H](/C=C/C2CC2)[C@H](Cc2ccccc2)OC(=O)[C@@H]1Cc1ccc(-n2cc(COc3ccccc3/C=C(C)/C=C/C(=O)NO)nn2)cc1 | active |
| C[C@@H]1CN([C@H](C)CO)C(=O)c2cccc(NS(C)(=O)=O)c2O[C@H]1CN(C)S(=O)(=O)c1ccc(Cl)cc1 | inactive |
| C=CC(=O)N[C@@H]1CN(c2nc(Nc3cn(C)nc3OC)c3ncn(C)c3n2)C[C@H]1F | inactive |
| Cc1ccc(S(=O)(=O)Nc2ccc3c(c2)C(=O)N([C@@H](C)CO)C[C@H](C)[C@@H](CN(C)C(=O)Nc2ccc(C(F)(F)F)cc2)O3)cc1 | inactive |
| Cc1noc(C)c1S(=O)(=O)Nc1ccc2c(c1)C(=O)N([C@@H](C)CO)C[C@@H](C)[C@H](CN(C)C)OCCCC[C@@H](C)O2 | inactive |
| CC(C)NC(=O)Nc1ccc2c(c1)CC(=O)N([C@H](C)CO)C[C@H](C)[C@@H](CN(C)C(=O)Nc1ccc3c(c1)OCO3)O2 | inactive |
| COc1ccc(NC(=O)Nc2ccc3c(c2)C(=O)N([C@@H](C)CO)C[C@@H](C)[C@H](CN(C)Cc2ccc4c(c2)OCO4)OCCCC[C@H](C)O3)cc1 | inactive |
| CCOC(=O)N(C)C[C@@H]1OCc2cn(nn2)CCCC(=O)N([C@@H](C)CO)C[C@H]1C | inactive |
| C[C@@H]1CN([C@H](C)CO)C(=O)c2cc(NC(=O)c3ccncc3)ccc2O[C@@H](C)CCCCO[C@H]1CN(C)S(=O)(=O)c1cn(C)cn1 | inactive |
| COc1ccc(/C=C/CN2CCC(C(=O)N[C@@H](c3ccc(F)cc3)c3ccc4ccccc4n3)CC2)cc1 | active |
| C[C@@H]1CCCCO[C@H](CN(C)Cc2ccc(Cl)c(Cl)c2)[C@@H](C)CN([C@H](C)CO)C(=O)c2cc(NC(=O)CCC(F)(F)F)ccc2O1 | inactive |
| CO[C@H](CCO)[C@H](O)c1ccc(O)c(F)c1 | inactive |
| COc1ccc2c3c(n(c2c1)C)[C@@H](CO)N(C[C@]13CCN(CC1)Cc1ccncc1)C(=O)CN1CCOCC1 | inactive |
| CSc1nc2nc(N)nc(N)c2s1 | inactive |
| COc1ccc2c3c(n(c2c1)C)[C@H](CO)N(C[C@]13CN(Cc2ccncc2)C1)C(=O)CN1CCOCC1 | inactive |
| COc1ccc(NC(=O)Nc2ccc3c(c2)CC(=O)N([C@H](C)CO)C[C@@H](C)[C@@H](CN(C)Cc2ccc(-c4ccccc4)cc2)O3)cc1 | active |
| CN([NH2+][O-])C(=O)N[C@@H]1[C@@H](O)[C@H](O)[C@@H](CO)O[C@@H]1O | inactive |
| C[C@H]1CCCCO[C@@H](CN(C)CC2CCCCC2)[C@@H](C)CN([C@@H](C)CO)C(=O)c2cc(NS(=O)(=O)c3ccc(Cl)cc3)ccc2O1 | inactive |
| C[C@@H]1CN([C@H](C)CO)C(=O)c2cccc(NS(=O)(=O)c3ccc(Cl)cc3)c2O[C@H]1CN(C)Cc1ccc(Oc2ccccc2)cc1 | inactive |
| C[C@@H]1CCCCO[C@H](CN(C)S(=O)(=O)c2cn(C)cn2)[C@@H](C)CN([C@@H](C)CO)C(=O)c2cc(NC(=O)CCCN(C)C)ccc2O1 | inactive |
| CC(=O)Nc1ccc(S(=O)(=O)c2ccc(NC(C)=O)cc2)cc1 | inactive |
| Cc1noc(C)c1NC(=O)N(C)C[C@@H]1Oc2ccc(NC(=O)CCN3CCOCC3)cc2CC(=O)N([C@H](C)CO)C[C@H]1C | inactive |
| Cc1noc(C)c1S(=O)(=O)Nc1ccc2c(c1)CC(=O)N([C@H](C)CO)C[C@H](C)[C@@H](CN(C)S(=O)(=O)c1ccc(F)cc1)O2 | inactive |
| CC(=O)N1CCc2nc(N)sc2C1 | inactive |
| Cc1ccc(S(=O)(=O)N(C)C[C@@H]2OCCCC[C@@H](C)Oc3ccc(NC(=O)Nc4c(C)noc4C)cc3C(=O)N([C@H](C)CO)C[C@@H]2C)cc1 | inactive |
| COc1ccccc1NC(=O)N(C)C[C@@H]1OCc2ccccc2-c2c(n(C)c3ccccc23)C(=O)N([C@H](C)CO)C[C@H]1C | inactive |
| COc1ccc([C@@H]2CC=CC[C@H](C)Oc3ccccc3C(=O)N(C)[C@H](Cc3ccccc3)C(=O)N2)c(OC)c1 | inactive |
| Cc1noc(C)c1NC(=O)Nc1cccc2c1O[C@@H](CN(C)S(C)(=O)=O)[C@H](C)CN([C@H](C)CO)C2=O | inactive |
